Measured values as given in PubChem BioAssay AID686979 (National Center for Advancing Translational Sciences (NCATS), 2013).
Hit rate of the full screen: of about 420,000 compounds, about 50,000 (12%) were called active. The inconclusive results got no clear call from the source; some entries with a clear call stand among them for comparison. Calls follow the shape of the dose curve; as a rule, active = well fitted inhibition curve with a large enough effect; inconclusive = small, poorly fitted or top-dose-only effect; inactive = flat fitted curve, though single readings scatter. Potencies of inconclusive entries are left out as doubtful fits.

Experiment: qHTS for Inhibitors of human tyrosyl-DNA phosphodiesterase 1 (TDP1): qHTS in cells in presence of CPT; also: nearly all actives have a fitted effect of over 55% in size
Details: chicken DT40 Tdp1-/-;hTDP1 cells + 20 nM CPT, ATP luminescence, 48 h; activity change, negative = growth inhibition: at 46.2 µM (top of the series) unless noted
Outline: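 Chicken DT40 Tdp1-/- cells stably complemented with human TDP1 were seeded at 400 cells/well in medium containing 20 nM camptothecin, exposed to pin-transferred compounds, and grown at 37 °C for at least 48 hr. Viability was read as ATP luminescence.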
% is scaled to controls: 0 for no effect and ±100 for the full control effect; potency is read from the fitted curve at half-maximal effect; tags tell the direction and shape of the fitted curve.

Compound | Potency | activity change, negative = growth inhibition
COc1ccc(NC(=O)CN2C(=O)C(C)N=C(c3ccccc3)c3ccccc32)cc1OC (configuration not stated) | inactive | –
Cc1ccc(Cn2cccc(C(=O)Nc3nc4ccc(C)cc4s3)c2=O)cc1 | inactive | –
Fc1ccccc1CNC1CN2CCC1CC2 (configuration not stated) | inconclusive [inhibitor, single point] | –
COc1ccc2c3c1OC1C(O)C=CC4[C@@H](C2)N(C)CC[C@]314 (some centres not stated) | inactive | –
CC1C(c2ccccc2)OCCN1C (configuration not stated) | inactive | –
O=C1NCN(c2ccccc2)C12CCN(C(c1cccc3ccccc13)c1nnnn1-c1ccc3c(c1)OCCO3)CC2 (configuration not stated) | inconclusive [inhibitor, single point] | –
O=C(NCc1ccc(Cl)cc1)C(=O)NCC(c1cccnc1)N1CCN(c2ccccc2)CC1 (configuration not stated) | active: 9.2 µM | –
CCOP(=O)(OCC)C(Nc1cc(Cl)cc(Cl)c1)c1cccc(O)c1 (configuration not stated) | inconclusive [inhibitor, single point] | –
COC(=O)C(Cl)C(=O)OC | inactive | –
c1ccc2c(c1)CN(Cc1ccc3c(c1)OCO3)Cc1cnnn1-2 | inconclusive [inhibitor, partial curve] | –
COC(=O)C1=C(c2ccc(F)cc2OCc2ccccc2)C[C@@H]2CC[C@H]1N2C(=O)N1CCOCC1 | active: 8.2 µM | –
Cn1ncc2c(NCc3ccc(Cl)cc3)ncnc21 | inconclusive [inhibitor, partial curve] | –
CCOc1ccc2c(c1)c(C(C)=O)c(C)n2Cc1ccco1 | inconclusive [inhibitor, partial curve] | –
CCOc1ccc(-c2cc(C)[n+](CCc3ccc(OC)c(OC)c3)c(-c3ccc(OCC)cc3)c2)cc1 | active: 0.82 µM | –
Cc1ccccc1NC(=O)COC(=O)c1cc(C)n(C2CC2)c1C | inconclusive [inhibitor, single point] | –
CNC(=O)Oc1cccc2c1OC(C)(C)O2 | inconclusive [inhibitor, single point] | –
CC1C(OC(=O)CCC(=O)NC(C)(C)CO)O[C@H]2OC3(C)CC[C@H]4[C@H](C)CCC1C24OO3 (some centres not stated) | active: 0.82 µM | –
NC(Cc1ccccc1Cl)c1nn[nH]n1 (configuration not stated) | inactive | –
COc1ccc2c(c1OC)C(=O)OC2c1c(O)n(Cc2ccc(F)cc2)c(=O)[nH]c1=O (configuration not stated) | inconclusive [inhibitor, full curve, poor fit] | –
Cc1ccccc1-n1c(O)c(/C=N/c2nccs2)c(=O)[nH]c1=O | inactive | –
CCC(C)(C)n1nnnc1C(c1cccc(C#N)c1)N1CCN(c2cc(C)ccc2C)CC1 (configuration not stated) | active: 16.4 µM | –
CC(=O)C1=C(O)C2(C)c3c(O)c(C)c(O)c(C(C)=O)c3OC2CC1=O (configuration not stated) | inconclusive [inhibitor, single point] | –
CSC1=NP(=S)(SC)N(C)c2nc3n(c21)CCC3 (configuration not stated) | inconclusive [inhibitor, single point] | –
CCCCC(=O)N/N=C/c1c(O)n(CCCC)c(=S)[nH]c1=O | inconclusive [inhibitor, single point] | –

Compound | Potency | activity change, negative = growth inhibition
CC(C)Oc1ccc(C(=O)Nc2ccc3c(c2)CCCN3C(=O)c2cccs2)cc1 | active: 11.6 µM | –
CCCCCCOC(=O)c1ccccc1N | – | inconclusive: -35.6% [inhibitor]
CCn1cc(CN(C)S(=O)(=O)c2ccc3ccccc3c2)c(C)n1 | active: 5.17 µM | –
O=C(c1ccc(Cl)cc1)C1CCCN(C2CCSCC2)C1 (configuration not stated) | inactive | –
CCOC(=O)[C@]12Cc3cc(OC)ccc3[C@H]1N(C1CCCCC1)C(=O)c1cc(OC)ccc12 | active: 2.59 µM | –
CN1OC[C@@H]2COc3ccc4ccccc4c3[C@@H]21 | inactive | –
COCCOc1ccc(C(F)(F)F)cc1NC(=O)CN1C(=O)NC2(CCCc3ccccc32)C1=O (configuration not stated) | inconclusive [inhibitor, partial curve, poor fit] | –
COC(=O)C(NC(=S)N1CC2C[C@@H](C1)Cn1c2cccc1=O)C(C)C (some centres not stated) | inactive | –
Nc1cccc(SC2CC(=O)N(c3ccc(Cl)cc3C(=O)c3ccccc3)C2=O)c1 (configuration not stated) | inconclusive [inhibitor, single point] | –
O=C1NC(=O)N(Cc2cccs2)C(=O)/C1=C/c1ccc(N2CCOCC2)cc1 | inconclusive [inhibitor, single point] | –
CCN(CC)C(=O)c1ccc(NC(=O)c2cn(-c3ccccc3)nc2-c2ccc(OC)cc2)cc1 | inconclusive [inhibitor, single point] | –
CC1=CC(=C2C(=O)NC(=O)NC2=O)C=C(C(F)(F)F)N1Cc1ccccc1 | inconclusive [inhibitor, single point] | –
C=C(C)[C@H]1O[C@H]2CC[C@@]3(C)[C@@](O)(CC[C@H]4[C@@H]5OC(C)(C)[C@H]6C[C@@H]7C(=C)Cc8c(Cl)cc9[nH]c(c5c9c8[C@@]76O)[C@@]43C)[C@]23O[C@@H]3[C@H]1O | inconclusive [inhibitor, single point] | –
c1ccc(CCN2CCC3(CC2)OCCO3)cc1 | inactive | –
CCc1ccccc1NC(=O)c1sc2nc3c(cc2c1N)CN(Cc1ccccc1)CC3 | active: 7.31 µM | –
c1ccc(C2c3ccccc3-n3nncc3CN2CC2CCCCC2)cc1 (configuration not stated) | inconclusive [inhibitor, single point] | –
COc1cc(/C=C/[N+](=O)[O-])ccc1OC(=O)c1cccnc1 | active: 3.26 µM | –
S=C=Nc1ccccn1 | inactive | –
Oc1cccc2nc3ccccc3nc12 | inconclusive [inhibitor, single point] | –
CC(=O)NCC(N)C(=O)c1ccc(Cl)c(Cl)c1 (configuration not stated) | inconclusive [inhibitor, single point] | –
COc1ccccc1-n1c(-c2ccc(C)cc2)nc2ccccc2c1=O | inconclusive [inhibitor, single point] | –
Cc1cc(N2CCCCC2)ccc1C=C1C(=O)N(C)C(=S)N(C)C1=O | inconclusive [inhibitor, single point] | –
CN1C(CC(=O)c2ccccc2)CCCC1CC(O)c1ccccc1 (configuration not stated) | inactive | –
